Laboratory results reported in the supplement of paper PMC4967469.
Lines with a small IC50 respond at low doses; a limit (>, <) means that the fit lies beyond the doses tested. The AUC spans the tested range (256-fold, ending at the top dose) of the same fit; values near 1 show little effect. For some of these results: The top dose, if marked as inferred, is not printed in the source and was worked back from the curve model.

Assays:
Assay in all cases: Viability of human cancer cell lines after 72 h of drug (GDSC screen)
Etoposide = compound: COc1cc([C@@H]2c3cc4c(cc3[C@@H](O[C@@H]3O[C@@H]5CO[C@@H](C)O[C@H]5[C@H](O)[C@H]3O)[C@H]3COC(=O)[C@H]23)OCO4)cc(OC)c1O [Etoposide]; conditions: top dose 16 µM
Protocol: (§1)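 Human cancer cell lines in 384-well plates, medium with 10% serum, drug for 72 h over a 256-fold dose range (nine 2-fold or five 4-fold steps up to the top dose). Adherent lines were fixed and stained with the nucleic acid dye Syto60, suspension lines read with resazurin; signal relative to control wells, capped at 0 and 100%. One two-parameter sigmoid per drug and line, fitted in a mixed model over all curves with the slope shared within a line.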

YK 4-279 = compound: COc1ccc(C(=O)CC2(O)C(=O)Nc3c(Cl)ccc(Cl)c32)cc1 [YK 4-279]; conditions: top dose 10 µM
Protocol: as §1

NPK76-II-72-1 = compound: COc1cc(C(=O)NC2CCN(C)CC2)ccc1Nc1ncc2c(n1)N(C1CCCC1)C(C)CC(=O)N2C [NPK76-II-72-1]; conditions: top dose 10.24 µM; top dose inferred
Protocol: as §1

Bexarotene = compound: C=C(c1ccc(C(=O)O)cc1)c1cc2c(cc1C)C(C)(C)CCC2(C)C [Bexarotene]; conditions: top dose 8 µM
Protocol: as §1

BMS-345541 = compound: Cc1ccc2nc(NCCN)c3ncc(C)n3c2c1 [BMS-345541]; conditions: top dose 16 µM
Protocol: as §1

GSK-650394 = compound: O=C(O)c1ccc(-c2c[nH]c3ncc(-c4ccccc4)cc23)cc1C1CCCC1 [GSK-650394]; conditions: top dose 16 µM; top dose inferred
Protocol: as §1

AZD7762 = compound: NC(=O)Nc1cc(-c2cccc(F)c2)sc1C(=O)N[C@H]1CCCNC1 [AZD7762]; conditions: top dose 2 µM
Protocol: as §1

XAV 939 = compound: Oc1nc(-c2ccc(C(F)(F)F)cc2)nc2c1CSCC2 [XAV 939]; conditions: top dose 5 µM; top dose inferred
Protocol: as §1

Row | Cell Line | AUC (Etoposide) | IC50 (Etoposide) [µM] | AUC (YK 4-279) | IC50 (YK 4-279) [µM] | AUC (NPK76-II-72-1) | IC50 (NPK76-II-72-1) [µM] | AUC (Bexarotene) | IC50 (Bexarotene) [µM] | AUC (BMS-345541) | IC50 (BMS-345541) [µM] | AUC (GSK-650394) | IC50 (GSK-650394) [µM] | AUC (AZD7762) | IC50 (AZD7762) [µM] | AUC (XAV 939) | IC50 (XAV 939) [µM]
1 | KGN (ovary, adherent) | 0.355 | 0.362 | 0.753 | 3.97 | 0.848 | 10.2 | 0.852 | > 8 | 0.865 | > 16 | 0.853 | > 16 | 0.691 | 0.486 | 0.903 | > 5
2 | KINGS-1 (glioma, adherent) | 0.908 | > 16 | 0.811 | 8.01 | 0.947 | > 10.2 | 0.896 | > 8 | 0.931 | > 16 | 0.98 | > 16 | 0.815 | 1.67 | 0.97 | > 5
3 | KLE (endometrium, adherent) | 0.77 | 9.79 | 0.847 | > 10 | 0.93 | > 10.2 | 0.97 | > 8 | 0.868 | > 16 | 0.928 | > 16 | 0.805 | 1.79 | 0.93 | > 5
4 | KM-H2 (Hodgkin lymphoma, suspension) | 0.496 | 0.976 | 0.754 | 2.91 | 0.791 | 3.84 | 0.99 | > 8 | 0.879 | 12.1 | 0.97 | > 16 | 0.855 | – | 0.992 | > 5
5 | KMH-2 (thyroid, adherent) | 0.564 | 1.46 | 0.638 | 1.43 | 0.99 | > 10.2 | 0.947 | > 8 | 0.809 | 7.26 | 0.726 | 4.03 | 0.652 | 0.313 | 0.988 | > 5
6 | KMOE-2 (acute myeloid leukaemia, suspension) | 0.725 | 3.99 | 0.566 | 0.926 | 0.794 | 4.15 | 0.952 | > 8 | 0.734 | 4.24 | 0.928 | > 16 | 0.684 | 0.382 | 0.968 | > 5
7 | KMRC-20 (kidney, adherent) | 0.679 | 3.19 | 0.875 | > 10 | 0.984 | > 10.2 | 0.969 | > 8 | 0.984 | > 16 | 0.939 | > 16 | 0.633 | 0.292 | 0.979 | > 5
8 | KNS-42 (glioma, adherent) | 0.814 | 10.9 | 0.765 | 4.34 | 0.874 | > 10.2 | 0.933 | > 8 | 0.949 | > 16 | 0.926 | > 16 | 0.953 | > 2 | 0.961 | > 5
9 | KNS-81-FD (glioma, adherent) | 0.925 | > 16 | 0.816 | 8.24 | 0.977 | > 10.2 | 0.938 | > 8 | 0.97 | > 16 | 0.975 | > 16 | 0.893 | > 2 | 0.904 | > 5
10 | KON (head and neck, adherent) | 0.449 | 0.73 | 0.655 | 1.67 | 0.987 | > 10.2 | 0.959 | > 8 | 0.967 | > 16 | 0.62 | 2.12 | 0.299 | 0.0344 | 0.985 | > 5
11 | KOPN-8 (B-cell leukaemia, suspension) | 0.482 | 0.898 | 0.621 | 1.27 | 0.789 | 3.83 | 0.934 | > 8 | 0.887 | 13.4 | 0.853 | 9.87 | 0.569 | 0.187 | 0.986 | > 5
12 | KS-1 (glioma, adherent) | 0.423 | 0.583 | 0.739 | 3.65 | 0.862 | > 10.2 | 0.807 | 5.38 | 0.865 | > 16 | 0.881 | > 16 | 0.708 | 0.563 | 0.926 | > 5
13 | KU812 (chronic myeloid leukaemia, suspension) | 0.594 | 1.77 | 0.841 | 6.06 | 0.386 | 0.32 | 0.92 | > 8 | 0.815 | 7.85 | 0.67 | 2.84 | 0.426 | 0.0798 | 0.985 | > 5
14 | KY821 (leukaemia, suspension) | 0.957 | > 16 | 0.732 | 2.58 | 0.892 | 9.38 | 0.982 | > 8 | 0.902 | > 16 | 0.989 | > 16 | 0.683 | 0.377 | 0.99 | > 5
15 | KYM-1 (rhabdomyosarcoma, adherent) | 0.826 | 7.85 | 0.673 | 1.75 | 0.95 | > 10.2 | 0.991 | > 8 | 0.991 | > 16 | 0.987 | > 16 | 0.548 | 0.165 | 0.969 | > 5
16 | KYSE-50 (oesophagus, adherent) | 0.442 | 0.706 | 0.757 | 3.17 | 0.904 | > 10.2 | 0.912 | > 8 | 0.868 | 12.5 | 0.647 | 2.45 | 0.798 | 0.861 | 0.989 | > 5
17 | KYSE-70 (oesophagus, adherent) | 0.829 | 11.2 | 0.588 | 1.12 | 0.979 | > 10.2 | 0.926 | > 8 | 0.912 | > 16 | 0.82 | 10.3 | 0.89 | > 2 | 0.973 | > 5
